Data reported in article PMC4336329 (PLoS ONE, 2015).
In all, about 310,000 compounds went through this assay and about 2,200 (0.71%) showed an effect of 50% or more. Effects have a minus sign here. The list shows a part of the results.

target: human ether-à-go-go-related gene (hERG) potassium channel (human, UniProt Q12809); assay: primary screen, population patch clamp on CHO cells stably expressing hERG
Sequence (Q12809 whole entry, looked up): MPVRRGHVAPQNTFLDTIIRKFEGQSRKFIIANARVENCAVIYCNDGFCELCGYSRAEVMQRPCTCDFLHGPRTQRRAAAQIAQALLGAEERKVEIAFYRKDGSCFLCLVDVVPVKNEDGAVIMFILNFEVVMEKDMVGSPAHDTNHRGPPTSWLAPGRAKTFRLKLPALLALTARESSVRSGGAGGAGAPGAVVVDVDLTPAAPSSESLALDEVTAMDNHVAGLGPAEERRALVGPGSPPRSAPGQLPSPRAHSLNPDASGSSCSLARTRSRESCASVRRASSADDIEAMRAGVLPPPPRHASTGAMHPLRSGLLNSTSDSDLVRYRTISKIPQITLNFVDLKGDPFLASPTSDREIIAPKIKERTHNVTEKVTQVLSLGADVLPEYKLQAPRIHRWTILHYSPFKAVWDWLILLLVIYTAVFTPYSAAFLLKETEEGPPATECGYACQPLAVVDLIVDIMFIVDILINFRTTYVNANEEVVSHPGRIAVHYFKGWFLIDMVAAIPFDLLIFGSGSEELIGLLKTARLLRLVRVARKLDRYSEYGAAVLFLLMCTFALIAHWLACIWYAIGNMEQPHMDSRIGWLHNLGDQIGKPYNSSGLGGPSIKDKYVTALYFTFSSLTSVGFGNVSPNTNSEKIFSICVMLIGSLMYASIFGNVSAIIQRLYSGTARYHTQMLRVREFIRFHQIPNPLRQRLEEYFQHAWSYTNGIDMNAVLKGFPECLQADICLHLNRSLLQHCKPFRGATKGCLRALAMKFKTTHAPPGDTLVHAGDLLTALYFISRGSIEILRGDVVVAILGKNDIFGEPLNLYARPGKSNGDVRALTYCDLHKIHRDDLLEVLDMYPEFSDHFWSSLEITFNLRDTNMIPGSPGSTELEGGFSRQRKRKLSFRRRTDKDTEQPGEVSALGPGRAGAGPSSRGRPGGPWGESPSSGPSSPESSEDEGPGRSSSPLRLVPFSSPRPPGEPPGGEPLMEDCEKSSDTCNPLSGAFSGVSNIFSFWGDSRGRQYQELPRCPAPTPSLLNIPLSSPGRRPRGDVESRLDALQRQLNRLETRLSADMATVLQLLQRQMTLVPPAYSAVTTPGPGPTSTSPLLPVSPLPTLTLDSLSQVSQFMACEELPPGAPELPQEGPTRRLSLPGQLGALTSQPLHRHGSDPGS

| Compound | hERG current change (%, negative = inhibition) at 1uM |
| --- | --- |
| COc1ccc(OC)c(/C=N/NC(=O)CCc2c(C)n[nH]c2C)c1 | 13.3% |
| CSCCC(=O)N1CCC(n2nccc2NC(=O)CCCc2ccccc2)CC1 | 8.23% |
| Fc1ccccc1/C=C/c1ccc2ccccc2n1 | 14.3% |
| Cc1ccc(-n2nc(C)c3cc(C(=O)O)sc32)cc1 | 0.904% |
| CCN(c1ccccc1)S(=O)(=O)c1ccc(Cl)c(NC(=O)COC(=O)C2CC2C)c1 (stereo not shown) | 13.7% |
| CC1CN(c2oc(-c3ccco3)nc2S(=O)(=O)c2ccccc2)CC(C)O1 (stereo not shown) | 1.21% |
| Cc1cc(Nc2ccc(F)cc2)nc(N)n1 | -14.2% |
| Cc1ccc(S(=O)(=O)CC(=O)Nc2ccc3nc(C)sc3c2)cc1 | 8.45% |
| CCCCC1CCC(C(=O)N(C)CC(=O)Nc2cccc(OC)c2)CC1 (stereo not shown) | 29.1% |
| Cc1cc2oc(C(=O)N(Cc3ccccc3)c3ccccn3)cc(=O)c2cc1Cl | 10.6% |
| CC(C)(C)c1ccc(/C=C/C(=O)NCCCn2ccnc2)cc1 | -13.3% |
| NC(=O)c1cc(N2C(=O)C=CC2=O)ccc1Cl | 5.24% |
| O=C(Nc1ncc2c(n1)-c1ccccc1CC2)c1ccccc1 | -13% |
| CCN1CCc2nc3ccccc3c(C(=O)Nc3ccc(F)cc3)c2C1 | -81.6% |
| COC(=O)Nc1cccn(Cc2c(Cl)cccc2Cl)c1=O | 7.21% |
| CC1(C(=O)O)CCC(C(=O)Nc2ccccc2)C1(C)C (stereo not shown) | 13.5% |
| O=C(Nc1nnc(C2CC2)s1)C1Cc2ccccc2CN1S(=O)(=O)c1cccs1 (stereo not shown) | 9.47% |
| CCOc1ccc(C(=O)NCC(=O)NC(C)CCc2ccccc2)cc1OCC (stereo not shown) | -2.24% |
| COc1ccc(CNC(=O)c2ccc(Cn3cc(Cl)cn3)o2)cc1 | 6% |
| CC(Sc1nnnn1C)C(=O)Nc1ccc(Oc2ccccc2)cc1 (stereo not shown) | 10.1% |
| Cc1ccc(S(=O)(=O)N2CCOC2CNC(=O)C(=O)NCCc2ccc(S(N)(=O)=O)cc2)cc1 (stereo not shown) | 8.36% |
| CC(C)CCNC(=O)C1CC(=O)N(CCc2ccccc2)C1 (stereo not shown) | 7.92% |
| CC(=O)c1c(N2CCOCC2)nc(=S)n(Cc2ccccc2)c1C | -14.5% |
| Cn1c(=O)c2c(SC3CCCC3)nc(C3CC3)nc2n(C)c1=O | 15.7% |
| Cl.OC(CNCCCN1CCCCC1)COc1ccccc1 (stereo not shown) | 1.25% |
